Reference: PubChem BioAssay (NCATS)
Inconclusive results, whose numbers are uncertain, are shown with a selection of clear calls. Potencies beside an inconclusive call are fits to weak or partial responses and may not hold up. For some assays here: “Side channel” marks fits to a control or component signal instead of the main read-out. The source made the active and inactive calls. Unless noted, the call rests on the fitted dose curve; in most records, active means well fitted activation curve with a large enough effect in the main read-out, with a control signal flat (not every such curve was filed as active); inconclusive means small, poorly fitted or top-dose-only effect, or effect the other way, or a change in a side signal; inactive means flat fitted curve, though single readings scatter.

Target: 3',5'-cyclic-AMP phosphodiesterase 4B (Homo sapiens) (UniProt Q07343)
Assay: qHTS Assay for Inhibitors of PDE-IV (AID 607); on activation (PDE inhibition): % of control where 0% means no effect
Settings: HEK293 ACTOne CNG channel cells, membrane potential fluorescence; activation (PDE inhibition): at 22.9 µM (top of the series)
Outline: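 The readout is membrane depolarisation from a cAMP-sensing CNG channel, detected with a potential dye at ex 535/em 590. Cells were HEK293-derived (endogenous PDE-IV) at 1000 cells/well, titrated up to 22.9 uM final.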
Potency means the concentration at half of the fitted maximal effect; tags describe the fitted curve by direction and shape or compound fluorescence and quenching.

Chain of UniProt Q07343 (Q07343 whole entry, looked up): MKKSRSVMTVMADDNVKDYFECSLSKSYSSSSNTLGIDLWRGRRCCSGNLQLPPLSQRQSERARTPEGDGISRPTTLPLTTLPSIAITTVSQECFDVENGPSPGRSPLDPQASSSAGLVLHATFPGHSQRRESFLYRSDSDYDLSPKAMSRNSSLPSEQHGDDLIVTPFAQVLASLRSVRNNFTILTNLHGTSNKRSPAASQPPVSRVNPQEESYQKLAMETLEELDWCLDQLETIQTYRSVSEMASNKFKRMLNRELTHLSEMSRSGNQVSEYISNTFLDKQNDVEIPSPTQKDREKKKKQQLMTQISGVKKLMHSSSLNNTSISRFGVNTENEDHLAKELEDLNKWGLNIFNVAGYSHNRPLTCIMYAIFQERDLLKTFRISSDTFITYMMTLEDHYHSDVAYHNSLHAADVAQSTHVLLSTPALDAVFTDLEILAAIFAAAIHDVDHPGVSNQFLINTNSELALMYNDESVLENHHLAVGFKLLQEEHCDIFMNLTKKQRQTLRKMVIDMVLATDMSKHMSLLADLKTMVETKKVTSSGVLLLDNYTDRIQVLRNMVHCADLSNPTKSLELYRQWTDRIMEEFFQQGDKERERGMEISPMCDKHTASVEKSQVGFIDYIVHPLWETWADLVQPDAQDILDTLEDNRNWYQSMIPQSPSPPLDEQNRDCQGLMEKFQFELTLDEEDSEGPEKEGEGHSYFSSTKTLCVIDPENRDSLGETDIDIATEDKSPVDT

SMILES	Potency
COc1cccc(Cn2c(=O)c(-c3cccs3)nc3cnc(OC)nc32)c1	inconclusive: 12.6 µM [activator, partial curve]
Cc1cccc(CNc2ncnc3ccc(-c4cccnc4)cc23)c1	inconclusive: 15.8 µM [activator, single point]
COc1ccc(Oc2ncc3nc(-c4cccs4)c(=O)n(Cc4cccc(OC)c4)c3n2)cc1	inconclusive: 5.01 µM [activator, partial curve]
CC[C@]1(O)C[C@H]2CN(CCc3c([nH]c4ccccc34)[C@](C(=O)OC)(c3cc4c(cc3OC)N(C=O)[C@H]3[C@@](O)(C(=O)OC)[C@H](OC(C)=O)[C@@]5(CC)C=CCN6CC[C@]43[C@H]65)C2)C1	inactive

Test system: not listed separately
Assay: qHTS Assay for Identification of Small Molecule Agonists for Hypoxia Response Element Signaling Pathway (AID 914; active means well fitted activation curve with a large enough effect in the signal ratio, with a control signal flat, not every such curve was filed as active; inconclusive means small, poorly fitted or top-dose-only effect, or effect the other way, or a change in a side signal; the % refers to the signal ratio; on activation: top concentration of the series differs between compounds; % of control where 0% means no effect)
Settings: ME-180 (cervical carcinoma) HRE-bla reporter, beta-lactamase ratio, CoCl2, 17 h; activation: hits give high values
Outline: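 Read-out: CCF4 FRET ratio of 460nm to 530nm emission (excitation 405nm) after 2.5 hours at room temperature, taken from HRE-bla ME-180 cells that had been exposed to compound and EC50 CoCl2 for 17 hours.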

SMILES	activation	Potency
CCCCc1ccc(NC(=O)CSC2=C(C#N)C(c3ccco3)C3=C(CCCC3=O)N2)cc1 (stereo not drawn)	inconclusive: -9.13%	–
CSc1nc2[nH]c3c(c2c2ncnn12)CCCC3	inconclusive: -30.7%	–
CCNc1ncc2nc(-c3cccs3)c(=O)n(Cc3ccc(F)cc3)c2n1	–	inconclusive: 3.16 µM [fluorescent, side channel, single point]
CCOC(=O)/C=c1\s/c(=C(\C#N)C(=O)OCC)n(-c2ccccc2)c1=O	–	inconclusive: 6.31 µM [inhibitor, partial curve]
COc1cccc(-c2ccc3ncnc(NCc4cccnc4)c3c2)c1	–	inconclusive: 0.398 µM [inhibitor, partial curve]
Cc1noc(C)c1C(=O)N1CCC2(CCCN(C(c3ccccc3)c3ccccc3)C2)CC1	inconclusive: -27.2%	–
CNC(=O)Nc1cccc(NC(=O)NC)n1	inconclusive: 25.1%	–
CCOC(=O)c1[nH]c2ccc(Br)cc2c1NC(=O)CCN1CCC(C(=O)OCC)CC1	–	inconclusive: 12.6 µM [inhibitor, partial curve]
Cc1coc2c(O)cc3c(c12)OC1(N2CCCCC2)C(=O)NCCCC31 (stereo not drawn)	–	inconclusive: 6.31 µM [cytotoxic, side channel, full curve]
C#CCN1C(C)=C(C(=O)OC)[C@@H](c2cccc([N+](=O)[O-])c2)C(C(=O)OCC)=C1C	inconclusive: -13.3%	–
Fc1ccccc1-c1nc(N2CCCCC2)c2ccccc2n1	–	inconclusive: 0.158 µM [inhibitor, full curve]
Cc1c(CCC#N)c(N2CCN(C3CCCCC3)CC2)n2c(nc3ccccc32)c1C#N	–	inconclusive: 12.6 µM [fluorescent, single point]
CCOC(=O)CC(=O)CSc1nc(N)c(C#N)c(-c2ccc(Cl)cc2)c1C#N	–	inconclusive: 10 µM [inhibitor, partial curve]
COc1ccc(CCn2c(C)cc3c(c2=O)C(c2ccc4c(c2)OCO4)C(C#N)=C(N)O3)cc1OC (stereo not drawn)	–	inconclusive: 3.16 µM [inhibitor, full curve, poor fit]
Cc1cccc(C)c1OCC(=O)Nc1cccc(-c2nnc(-c3ccccc3)o2)c1	–	inconclusive: 2 µM [inhibitor, full curve, poor fit]
Cc1ccc2[nH]c3c(c2c1)CN(C(=O)CN1CCCc2ccccc21)CC3	–	inconclusive: 3.98 µM [inhibitor, partial curve, poor fit]
COc1cccc(Cn2c(=O)c(-c3cccs3)nc3cnc(OC)nc32)c1	–	inconclusive: 3.98 µM [activator, single point]
O=C(O)CCc1cc(I)c(Oc2ccc(O)c(I)c2)c(I)c1	–	inconclusive: 12.6 µM [inhibitor, single point]
COc1ccc(Oc2ncc3nc(-c4cccs4)c(=O)n(Cc4cccc(OC)c4)c3n2)cc1	–	active: 3.16 µM
